Experimental data published in PubChem BioAssay AID2676 (National Center for Advancing Translational Sciences (NCATS), 2010).
Values joined by “and” are separate entries in the source; they are usually repeats but may differ in a detail not shown here. Identical values can stand only once. Hit rate of the full screen: of about 370,000 compounds, about 1,100 (0.3%) were called active. Inconclusive results, whose numbers are uncertain, are shown with a selection of clear calls. Calls come from the whole dose curve; as a rule, active = well fitted activation curve with a large enough effect; inconclusive = small, poorly fitted or top-dose-only effect; inactive = flat fitted curve, though single readings scatter. Where the call is inconclusive, the potency comes from a doubtful curve fit.

Biological target: Relaxin receptor 1 (Homo sapiens) (UniProt Q9HBX9)
Test: qHTS Assay for Agonists of the Relaxin Receptor RXFP1; note: nearly all actives have a fitted effect of over 60% in size
Conditions: HEK293T-RXFP1 cAMP TR-FRET, 30 min; series mostly up to 57.5 µM
Excerpt: NIH Chemical Genomics Center [NCGC] NIH Molecular Libraries Probe Production Centers Network [MLPCN] MLPCN Grant: R03 MH085705-01A1 Assay Submitter (PI): Alexander Agoulnik NCGC Assay Overview: The relaxin hormone is involved in the variety of biological functions in normal tissues and diseases. The role of relaxin is well-established in female reproduction and parturition, mammary gland and endometrial development, maintenance of myometrial quiescence during pregnancy. Relaxin signaling through its G protein-coupled receptor (GPCR) RXFP1 results in ECM remodeling through regulation of collagen deposition, cell invasiveness, proliferation and overall tissue homeostasis. […] Recombinant human relaxin (rhRlx) is currently being tested in clinical trials as a protective agent in congestive heart failure, in treating severe preeclampsia, and as an anti-fibrotic agent in systemic sclerosis. Upon relaxin binding RXFP1 activation leads to the activation of adenylate cyclase (AC) via Gs. cAMP will activate PKA, which phosphorylates many signaling proteins. Thus, detection of cAMP increase is an easy and reliable indication of relaxin receptor activation. To screen for agonists of the relaxin receptor, a HEK293T cell line stably transfected with RXFP1 was used. RXFP1 activation was assayed by changes in cAMP levels as detected with a time-resolved fluorescence energy transfer (TR-FRET) cAMP detection kit.
NCGC Assay Protocol Summary: This is a cell-based assay for cAMP second messenger response to screen for agonists of the RXFP1 receptor. The assay was conducted in the presence of a PDE4 inhibitor (Ro 20174). The cells were lysed and the cAMP levels were measured with a TR-FRET cAMP kit. Presence of cAMP in the cell lysate disrupts binding between the cryptate-labeled anti-cAMP and d2-labeled cAMP pair, leading to a decrease in the TR-FRET signal. Data were normalized to the controls for basal activity (buffer only) and 100% activity (29 nM porcine relaxin). The EC50 values were determined from concentration-response data modeled with the standard Hill equation 1536-well assay protocol for the HEK293 RXFP1 cAMP assay: (1) Add 3 ul HEK293 RXFP1 cell culture. 2000 cells/well in DMEM/F12, 10% FBS, 1x Pen/Strep (dispensed offline with MultiDrop Combi). (2) Incubate 16-24 hr at 37C, 5% CO2. (3) Add 1 ul 400uM Ro20174 in DPBS, 0.05% BSA, 0.005% Tween 20. (3) Add 23 nl compounds in DMSO solution. Final concentration was 0.5 - 58 uM. (4) Incubate 30 min at 37C, 5% CO2. (5) Add 1 ul cAMP-d2 in lysis buffer (HTRF cAMP HiRange kit, CisBio). (6) Add 1 ul anti-cAMP antibody-cryptate in lysis buffer (HTRF cAMP HiRange kit, CisBio). (7) Incubate 30 min at room temperature. (6) Detect the assay plate in a ViewLux plate reader (PerkinElmer) with Ex=320 nm, Em1=615 nm and Em2=665 nm. Keywords: relaxin, RXFP1, RXFP2, G-protein coupled receptor, cAMP, agonist, high throughput screening, MLSMR, MLSCN, NIH Roadmap, qHTS and NCGC
Potency is the fitted concentration of half-maximal effect; tags give direction and shape of the fitted curve.

Sequence of UniProt Q9HBX9 (Q9HBX9 whole entry, looked up): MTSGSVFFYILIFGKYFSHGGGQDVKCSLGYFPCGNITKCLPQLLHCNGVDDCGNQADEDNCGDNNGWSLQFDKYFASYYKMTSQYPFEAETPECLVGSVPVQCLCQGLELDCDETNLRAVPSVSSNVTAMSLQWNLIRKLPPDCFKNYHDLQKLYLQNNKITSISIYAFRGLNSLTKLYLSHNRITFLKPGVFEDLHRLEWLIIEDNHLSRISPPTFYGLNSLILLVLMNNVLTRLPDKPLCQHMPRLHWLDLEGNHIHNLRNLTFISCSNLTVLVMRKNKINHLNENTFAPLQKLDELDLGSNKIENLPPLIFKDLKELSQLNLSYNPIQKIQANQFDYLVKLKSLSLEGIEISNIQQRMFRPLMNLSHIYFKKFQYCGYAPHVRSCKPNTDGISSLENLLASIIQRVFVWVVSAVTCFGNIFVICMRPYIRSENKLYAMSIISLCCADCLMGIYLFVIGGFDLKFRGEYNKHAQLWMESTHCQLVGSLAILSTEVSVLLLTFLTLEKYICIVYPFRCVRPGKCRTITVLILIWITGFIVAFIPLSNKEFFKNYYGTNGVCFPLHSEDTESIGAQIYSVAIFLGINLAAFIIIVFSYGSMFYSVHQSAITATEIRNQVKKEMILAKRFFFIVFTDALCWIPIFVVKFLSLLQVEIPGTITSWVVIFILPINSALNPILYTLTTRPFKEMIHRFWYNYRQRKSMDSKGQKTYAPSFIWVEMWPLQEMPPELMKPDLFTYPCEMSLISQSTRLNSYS

| Compound | Potency |
| --- | --- |
| COc1ccc(C(=O)Nc2ccc(Cl)cc2C(=O)NCc2ccco2)cc1 | inconclusive: 35.5 µM [activator, single point] |
| COc1ccc(/C=C2\SC(=O)N(CCNC(=O)C3=COCCO3)C2=O)cc1 | inactive |
| O=C(NCC1CCCO1)c1sc(=S)n2c1[nH]c(=O)c1ccc(C(=O)N3CCCCC3)cc12 (stereo not given) | inactive |
| O=C(CCCn1c(=S)[nH]c2ccccc2c1=O)N1CCN(c2cccc(Cl)c2)CC1 | inactive |
| COc1cc(NC(=O)CSc2nccn2C)cc(OC)c1OC | inactive |
| Cc1[nH]n(-c2ccc([N+](=O)[O-])cc2)c(=O)c1/C=N/N1CCOCC1 | inconclusive: 28.2 µM [activator, partial curve] |
| O=C(Nc1ccc(F)cc1F)c1cc2ncc(Br)cn2n1 | inconclusive: 31.6 µM [activator, single point] |
| O=C(CSc1nnc2ccc(-c3ccc(Br)cc3)nn12)NCC1CCCO1 (stereo not given) | inconclusive: 28.2 µM [activator, partial curve] |
| CCCCn1c(N)c(N(CC(C)C)C(=O)CSc2n[nH]c(-c3ccc(C)cc3)n2)c(=O)[nH]c1=O | inactive |
| CC(=O)c1ccc(N2CCN(C(=O)CCn3cnc4onc(-c5ccc(F)cc5)c4c3=O)CC2)cc1 | inconclusive: 39.8 µM [activator, single point] |
| CCCCCOc1ccc(C(=O)Nc2ccc(S(=O)(=O)Nc3cc(C)on3)cc2)cc1 | inconclusive: 39.8 µM [activator, single point] |
| COc1ccc(/C=C(\C#N)C(=O)OCC(=O)NCc2ccccc2)cc1 | inactive |
| COCCNc1cc(C)nc2cc(-c3ccc(C)cc3)nn12 | inactive |
| COc1ccc(C(=O)c2cn(Cc3cccc(C)c3)c3cc4c(cc3c2=O)OCO4)cc1 | inconclusive: 39.8 µM [activator, single point] |
| O=C(NCCOC(=O)c1ccc([N+](=O)[O-])cc1)c1cccnc1 | inconclusive: 22.4 µM [activator, partial curve] |
| CCc1ccc(OCc2cccc(C(=O)N/N=C\c3cnn(C)c3C)c2)cc1 | inactive |
| Cc1cccc(Cc2c(C)nc3nc(SCc4ccccc4Cl)nn3c2C)c1 | inconclusive: 31.6 µM [activator, single point] |
| CC(=O)c1sc(-c2ccccc2)cc1NS(=O)(=O)c1ccc(C)cc1 | inconclusive: 15.8 µM [activator, partial curve] |
| CCOC(=O)c1sc2nc(C)nc(NCCc3ccc(S(N)(=O)=O)cc3)c2c1C | inconclusive: 39.8 µM [activator, single point] |
| COc1cc(OC)cc(-c2nc3nc(C)c(CCC(=O)Nc4ccc(F)cc4F)c(C)n3n2)c1 | inactive |
| CCCCN(C(=O)Cn1ncc(Cl)c(Cl)c1=O)c1c(N)n(CC(C)C)c(=O)[nH]c1=O | inactive |
| O=C(COc1ncnc2cc(Cl)ccc12)c1ccc2c(c1)OCCO2 | inconclusive: 39.8 µM [activator, single point] |
| CCN(CC)C(=O)CSc1nc(C)cc(-c2cccs2)c1C#N | inconclusive: 35.5 µM [activator, single point] |
| Cc1ccc(-c2nnc(SCC(=O)NC3CCCC3)nc2-c2ccc(C)cc2)cc1 | inactive |

| Compound | Potency |
| --- | --- |
| CN1CCc2c(sc(NC(=O)CS(=O)(=O)c3ccccc3)c2C(N)=O)C1 | inactive |
| Cn1c([N+](=O)[O-])cnc1N1CCN(c2nncs2)C1=O | active: 15.8 µM |
| COCCCn1c(=N)c(C(=O)NCC2CCCO2)cc2c(=O)n3cc(C)ccc3nc21 (stereo not given) | inconclusive: 20 µM [activator, partial curve] |
| CCOc1ccc(CCNC(=O)CCCn2c(=O)c3cccn3c3cccnc32)cc1OCC | inconclusive: 39.8 µM [activator, single point] |
| C=CCSc1nnc(N2C(=O)C(O)=C(C(=O)c3ccco3)C2c2ccccc2F)s1 (stereo not given) | inconclusive: 17.8 µM [activator, partial curve] |
| COC(=O)c1ccc(NC(=O)CSc2nc(C)cc(C)c2C(=O)Nc2ccccc2)cc1 | inconclusive: 39.8 µM [activator, single point] |
| CCc1cccc(NC(=O)c2cn3c4c(ccc(Cl)c4c2=O)OC(C)C3)c1 (stereo not given) | inconclusive: 8.91 µM [activator, partial curve] |
| COc1ccc(Cn2c(=N)c(C(=O)NCC3CCCO3)cc3c(=O)n4ccccc4nc32)cc1 (stereo not given) | inactive |
| CC(=O)c1cccc(NC(=O)c2nc(-c3ccccc3)n(-c3cccc(Cl)c3)n2)c1 | inconclusive: 35.5 µM [activator, single point] |
| CCOc1ccccc1Nc1sc(C(=O)c2ccccc2)c(N)c1C(=O)Nc1ccccc1 | inconclusive: 39.8 µM [activator, single point] |
| O=S(=O)(c1ccccc1)c1nnn2c1nc(NC1CCCCC1)c1sccc12 | inconclusive: 31.6 µM [activator, single point] |
| CCc1ccc(NC(=O)CN(c2ccc(C)cc2)S(=O)(=O)c2cccs2)cc1 | inactive |
| COc1ccc2cc(C#N)c(Nc3cccc(F)c3)nc2c1 | inconclusive: 35.5 µM [activator, single point] |
| CC(=O)c1ccc(N2CCN(c3ccnc4cc(Cl)ccc34)CC2)cc1 | inconclusive: 35.5 µM [activator, single point] |
| O=c1ccc(-c2ccc(S(=O)(=O)N3CCN(c4ccccc4)CC3)o2)n[nH]1 | inconclusive: 31.6 µM [activator, single point] |
| CSc1ncc(C(=O)Nc2c(C)cccc2C)c(-c2ccccc2)n1 | inconclusive: 39.8 µM [activator, single point] |
| Cc1ccc(C)c(NC(=O)c2cc(S(=O)(=O)N3CCCc4ccccc43)ccc2F)c1 | inactive |
| CCOc1ccc(-n2c(SCC(=O)NCc3ccco3)nc3ccccc3c2=O)cc1 | inconclusive: 39.8 µM [activator, single point] |
| CCOc1ccc(C(=O)Nc2nc(C)c(C(=O)OC)s2)cc1 | inconclusive: 35.5 µM [activator, single point] |
| CC(C)Nc1nc(-c2cccnc2)nc(-c2ccc(Cl)cc2)c1C#N | inconclusive: 35.5 µM [activator, single point] |
| Cc1c(C(=O)Nc2ccc(S(N)(=O)=O)cc2)oc2ccc(Cl)cc12 | inconclusive: 17.8 µM [activator, partial curve] |
| CN(C)c1ccc(C(=O)Nc2ccc(S(=O)(=O)Nc3nccs3)cc2)cc1 | inconclusive: 39.8 µM [activator, single point] |
| COc1ccc(/C(O)=C2/C(=O)C(=O)N(Cc3cccnc3)C2c2ccco2)cc1OC (stereo not given) | inconclusive: 31.6 µM [activator, partial curve] |
| COc1ccc(NC(=O)CSc2ccc3nc(-c4ccccc4)cn3n2)cc1OC | inconclusive: 35.5 µM [activator, single point] |

| Compound | Potency |
| --- | --- |
| Cc1cc(C)cc(NC(=O)CSc2nc(-c3ccccc3)c3cc(F)ccc3n2)c1 | inactive |
| Cc1cc(=O)n2nc(N3CCCC3C(=O)Nc3cccc(F)c3)sc2n1 (stereo not given) | inconclusive: 25.1 µM [activator, partial curve] |
| O=C(Nc1cccc(S(=O)(=O)N2CCCCC2)c1)c1ccc2ncsc2c1 | inactive |
| c1ccc(CCNc2ncnc3ccccc23)cc1 | inactive |
| COc1ccccc1NC(=O)CCCc1nnc2n(C)c(=O)c3sccc3n12 | active: 12.6 µM and active: 4.47 µM |
| COc1ccc(-c2oc(NC(=O)c3ccc(C)cc3)c(C#N)c2-c2ccc(OC)cc2)cc1 | inactive |
| N#Cc1cc2c(nc1SCc1ccccc1)CCC2 | inconclusive: 6.31 µM [activator, single point] |
| Nc1ccc(O)c2c(=O)cc(-c3ccccc3Cl)oc12 | inactive |
| COc1cc(C2C(C(=O)c3ccco3)=C(O)C(=O)N2CCc2ccccc2)ccc1O (stereo not given) | inactive |
| CCOc1ccccc1CNCc1cccn1-c1nnc(N2CCN(c3ccccc3)CC2)s1 | inactive |
| O=C(NC1CCN(S(=O)(=O)c2ccc(F)cc2)CC1)C1CCCCC1 | inactive |
| Cc1cccc(NC(=O)c2c(C)cc(C)nc2SCC(=O)c2ccccc2)c1 | inconclusive: 39.8 µM [activator, single point] |
| CC(=O)C(Sc1nccc(-c2cccs2)n1)C(C)=O | inactive |
| CCOCCCNc1ncc2c(n1)CC(c1ccc(C)cc1)CC2=O (stereo not given) | inconclusive: 39.8 µM [activator, single point] |
| Cc1ccc(-n2nc(CO)c(C(=O)NC(C)CCCc3ccccc3)n2)cc1 (stereo not given) | inactive |
| COc1ccc(Nc2nnc(-c3ccc(O)cc3)c3ccccc23)cc1 | inactive |
| COCCCN1C(=O)C(O)=C(C(=O)c2ccco2)C1c1cccc(Br)c1 (stereo not given) | inconclusive: 31.6 µM [activator, partial curve] |
| CCCN(CCC)C(=O)Cn1c(=O)n(-c2ccc(CC)cc2)c(=O)c2ccc(C(=O)NCCc3ccccc3)cc21 | active: 25.1 µM |
| O=C(Nc1ccc2c(c1)C(=O)NC2=O)c1ccc2ncsc2c1 | inconclusive: 4.47 µM [activator, full curve] |
| CCOc1ccc(NC(=O)C(=O)c2cc(C)n(-c3cc(C)cc(C)c3)c2C)cc1 | inconclusive: 35.5 µM [activator, single point] |
| NS(=O)(=O)c1ccc(NC(=O)c2ccc3c(c2)CCCC3)cc1 | inconclusive: 39.8 µM [activator, single point] |
| COc1cccc(Nc2nc(-c3ccccc3O)nc3ccccc23)c1 | inconclusive: 39.8 µM [activator, single point] |
